Results on 6 compounds are retold here after PubChem BioAssay (NCATS).

Where “and” joins values, the source holds several entries; their conditions need not be identical. Identical values can stand only once. The list shows a part of the results. Further columns of the screen follow, without active or inactive calls. The list favours compounds with an active or inconclusive main result. For part of these data: The note in brackets gives the kind of curve behind each potency; many fits are weak.

Test [1] can be described thus: qHTS Assay for Lipid Storage Modulators (AID 1519). As to conditions: Drosophila S3 cells, BODIPY lipid droplet/cell ratio, laser cytometry, cells loaded with oleic acid. Put shortly: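 Cells seeded at 5,000 per well were treated with compounds over a concentration series and loaded with oleic acid (400 uM, as added). Lipid droplet fluorescence (488 nm excitation, 500-530 nm channel) was read by laser-scanning cytometry and normalized to 20 uM Triacsin C.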

Test [2] is described as follows: qHTS Assay for Modulators of Human Peripheral Myelin Protein 22 (PMP22) Expression/Activity (AID 1967). As to conditions: Cell-based PMP22 reporter, dual-color luciferase ratio. An outline of the steps:
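MSC80 mouse Schwann cells stably carrying Pmp22 promoter–green click beetle luciferase plus EF-alpha–red luciferase control were dosed for 24h at 37 °C. Dual-colour luminescence was filter-overlap corrected; %Activity came from green/red ratio versus untreated cells.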
In general terms: Quantitative high-throughput screening tests each substance at several concentrations.

Test [3] in a line: qHTS Validation Assay to Find Inhibitors of Chronic Active B-Cell Receptor Signaling (AID 485345). As to conditions: ABC-DLBCL cells, chronic BCR signaling reporter. Put shortly:
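Read-out: ratio of filter-corrected green (IkappaBalpha fusion) to red (native) luciferase signal in doxycycline-induced TMD8 cells after 4 h at 37C. Titration spanned 46 uM–3 nM; Data were normalised to basal cells and 10 uM MG-132 wells.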

Test [4] can be described thus: Nrf2 qHTS screen for inhibitors: Validation (AID 493153). The note with it: A549 ARE-Fluc reporter, 18-24 h; AC50: CellTiter-Fluor fluorescence read, measured here: cytotoxicity CellTiter-Fluor AC50; viability change: measured here: cytotoxicity max response. Put shortly:
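A549 cells carrying ARE-firefly luciferase reporter, 5000 cells/well in 5% FBS OPTI-MEM, treated with compound over a concentration series for 18-24 h at 37 C. Luciferase luminescence gave Nrf2 activity; CellTiter-Fluor fluorescence gave viability.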

The nature of test [5]: qHTS assay for small molecule antagonists of androgen receptor signaling (AID 588516). As to conditions: AR-UAS-bla HEK293, beta-lactamase ratio, antagonist mode, 16 h; measured here: W460 blue channel fit. Put shortly:
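Cells were plated and incubated 5 h, compounds added in titration, then R1881 (10 nM final) as agonist. After 16 h at 37 C, CCF4 substrate was loaded for 2 h at room temperature and fluorescence measured.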

Test [6] can be described thus: qHTS assay for small molecule antagonists of glucocorticoid receptor signaling (AID 588533).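 Further: cells stimulated with 2 nM dexamethasone as agonist.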 The note with it: HeLa MMTV-bla, GRE beta-lactamase ratio, antagonist mode, 18 h; measured here: W530 channel AC50.
Test [7] in a line: qHTS assay for small molecule antagonists of peroxisome proliferator-activated receptor delta signaling (AID 588535).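 Further: cells co-treated with a PPAR-delta agonist as stimulator during compound exposure.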 As to conditions: HEK293T PPARd-UAS-bla, beta-lactamase FRET ratio, 18 h; 460 nm channel. Put shortly:
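HEK293T PPAR-delta-UAS-bla cells, 4000/well, 2% charcoal/dextran FBS; 5 h 37 C; cpd titration; 18 h 37 C; CCF4 2 h RT; FI 460/530 nm; Hill fit → IC50, efficacy.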

Test [8] can be described thus: qHTS assay for small molecule antagonists of peroxisome proliferator-activated receptor gamma signaling (AID 588537). As to conditions: HEK293 PPARg-UAS-bla, beta-lactamase ratio, antagonist mode; measured here: W460 blue channel. An outline of the steps: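 Antagonist mode, beta-lactamase reporter in HEK293; charcoal/dextran FBS 1%; 3000 cells/well, 37 C 6-6.5 h; cpd titration + rosiglitazone 50 nM final, 16 h 37 C; CCF4, 2 h RT; 460/530 nm; Hill fit → IC50, efficacy.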

A short description of test [9]: qHTS assay for small molecule antagonists of vitamin D receptor signaling (AID 588541). The note with it: HEK293T VDR-UAS-bla, beta-lactamase ratio, antagonist mode; measured here: W460 blue channel (cell viability).
Test [10] in a line: qHTS assay for small molecule antagonists of retinoid X receptor alpha signaling (AID 588546).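 Further: cells stimulated with 9-cis-retinoic acid as agonist; on the % scale 0 is the no-effect control and ±100 the full control effect.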 The note with it: HEK293T RXRa-UAS-bla, beta-lactamase ratio, antagonist mode; measured here: W530 green channel, cytotoxicity proxy. Put shortly: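 Beta-lactamase reporter inhibition, read as CCF4 fluorescence ratio (ex 405, em 460/530 nm) after 2 h at RT. HEK293T UAS-bla cells, 2500/well, were stimulated with 9-cis-RA at 500 or 100 nM final alongside test compound for 18 h at 37 C.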

Test [11] is described as follows: qHTS assay for small molecule agonists of retinoid X receptor alpha signaling (AID 588544). The note with it: HEK293T RXRa-UAS-bla, beta-lactamase reporter, 18 h; 530 nm emission.
Test [12] is described as follows: S16 Schwann cell PMP22 intronic element beta-lactamase assay (AID 624044). Further: nearly all actives have a fitted effect of over 15% in size. The note with it: S16 rat Schwann cells, PMP22 element beta-lactamase FRET, 24 h; measured here: 460 nm blue channel. An outline of the steps: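 Rat S16 Schwann cells with beta-Lac driven by a PMP22 intronic element, compound-treated 24 h at 37 °C. LiveBLAzer FRET B/G read: 460 nm normalized to potassium clavulanate vs DMSO; 535 nm FRET as viability; concentration-effect curves classified.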

Where [13] appears, read: measured here: cell count channel max response.
The mark [14] stands for this setting: measured here: cell number channel AC50.
Setting [15] is: measured here: lipid channel max response.
Setting [16] is: measured here: green reporter channel AC50, mouse Pmp22 promoter in mouse Schwann cells.
Setting [17] is: measured here: red reporter channel AC50, EF-alpha promoter control reporter in MSC80 mouse Schwann cells.
Setting [18] is: measured here: lipid (BODIPY) channel AC50.
Tags describe the fitted curve by direction and shape.

The term AC50 denotes the midpoint of the concentration-response curve, whichever way the signal moves. As to `c1ccc2c(c1)[I+]c1ccccc1-2`, the max response in [1] (setting [13]) was 50.4% and -46%; in test [1] (setting [15]), -92.5% and -111%. Further, the AC50 in test [1] (setting [14]) was 70.8 nM [rising, full curve, poor fit] and 708 nM [falling, full curve]; in test [2] (setting [16]) it was 0.849 µM [falling, full curve]; in [2] (setting [17]), 0.213 µM [falling, full curve]; in test [3] (measured here: CBG/CBR ratio read-out), 2.59 µM [falling, full curve]; in [3] (measured here: CBR control luciferase (viability counter)), 2.06 µM [falling, full curve]; in [4] it was 7.31 µM [falling, partial curve]. Further, in test [4], the viability change is -54.4%.

In the case of `CNCCCN1c2ccccc2CCc2ccccc21`, the max response in [1] (setting [13]) is -14.3%; in test [1] (setting [15]) it was -14.7%. The AC50 was 22.4 µM [falling, single point] in test [1] (setting [14]); 33.8 µM [falling, full curve] in [2] (setting [16]); 23.9 µM [falling, full curve] in [2] (setting [17]).

Turning to `O=C1C=C2C(=CCOC2O)O1` (configuration not stated), the max response was -68.5% in [1] (setting [13]), -94.9% in test [1] (setting [15]), -105% in test [7] and -30.2% in test [10]. Besides, the AC50 in test [1] (setting [14]) was 22.4 µM [falling, partial curve]; in [1] (setting [18]), 3.98 µM [falling, full curve]; in test [5], 14.1 µM [falling, full curve, poor fit]; in [6], 31.6 µM [falling, partial curve, poor fit]; in [8] it was 31.6 µM [falling, partial curve, poor fit]; in test [9], 3.55 µM [falling, full curve].

As for `C[C@]12C=CC(=O)C=C1CCC1C2=CC[C@]2(C)[C@@H](C(=O)CN3CCN(c4cc(N5CCCC5)nc(N5CCCC5)n4)CC3)CC[C@@H]12` (some centres not stated), the max response was -72.4% in [1] (setting [13]) and -77.3% in test [1] (setting [15]). Besides, the concentration at half-maximal activity (AC50) in [1] (setting [14]) is 7.08 µM [falling, full curve, poor fit]; in [2] (setting [16]), 75.7 µM [falling, single point]; in [2] (setting [17]), 84.9 µM [falling, single point].

Take `N#Cc1nn(-c2c(Cl)cc(C(F)(F)F)cc2Cl)c(N)c1S(=O)C(F)(F)F` (configuration not stated): the max response is -35.6% in test [1] (setting [13]); -39.6% in test [1] (setting [15]); 3.29% in test [7]; 15.5% in test [11]; 1.26% in test [10]. Besides, the AC50 was 11.2 µM [falling, partial curve, poor fit] in test [1] (setting [14]); 2.51 µM [falling, partial curve, poor fit] in test [1] (setting [18]); 25.1 µM [falling, partial curve, poor fit] in test [12].

With `Brc1c(NC2=NCCN2)ccc2nccnc12`, the max response in test [1] (setting [13]) was 30.9% and -24.1%; in [1] (setting [15]), 41% and -24.1%. Also, the AC50 in [1] (setting [14]) is 7.94 µM [rising, full curve, poor fit] and 12.6 µM [falling, partial curve, poor fit]; in test [1] (setting [18]), 12.6 µM [rising, partial curve, poor fit]; in test [12] it was 22.4 µM [rising, single point].
